Test systems include HCC-2998 colon; NCI-H23 lung; NCI/ADR-RES ovarian; OVCAR-5 ovarian; A498 renal; EKVX NSCLC; NCI-H226 lung; OVCAR-4 ovarian; SF-295 CNS; 786-0 renal; A549 NSCLC; ACHN renal; CAKI-1 renal; DU-145 prostate; HOP-62 NSCLC; HS 578T breast; MALME-3M melanoma; MDA-MB-231 breast; MDA-MB-435; OVCAR-3 ovarian; OVCAR-8 ovarian; PC-3 prostate; SF-268 CNS; SF-539 CNS; SK-OV-3 ovarian; SN12C renal; TK-10 renal; U251 CNS; UACC-62 melanoma; K-562 leukemia; MOLT-4 leukemia; T-47D breast; HT29 colon; NCI-H460 lung; UO-31 renal; SR leukemia.

What all share (test): NCI tumour cell line growth inhibition, 48 h

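Assay format: 96-well plates, 48-hour exposure. GI50 = concentration required for 50% inhibition of growth.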 A number of entries come with more than one value. The list is limited to them. There may be further records. For part of these data: The tests behind the records often covered other concentration ranges, not given here; some values may only mark the edge of a range.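 TGI marks complete inhibition of growth.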 For part of these data: Values that stand side by side repeat one measurement in other runs, samples, wells, individuals or studies. A tag in brackets gives the origin of a value. The letters are not those of the source and start again with each entry. *1 amine or outer side, *2 acyl side, *3 side chain or, on linkers, in order; H or OH if unused. Where a SMILES comes first, the peptide text is derived from it. Bridges are numbered along the chain shown (N, C = ends). Roman numbers before positions name the chains, in order. [ ]: non-standard residue; d: D form. Actinocin(1to9) = Cc1c2oc3c(C)ccc(C(=O)[*:2])c3nc-2c(C(=O)[*:1])c(N)c1=O; NMeV = CN[CH](C(=O)O)C(C)C; Sar = CNCC(=O)O

As for `NC(=S)N=Nc1c(O)[nH]c2ccccc12`, the TGI in the assay on HCC-2998 colon is 3.11 µM and 459 µM; in the assay on NCI-H23 lung, 4.4 µM and 383 µM; in the assay on NCI/ADR-RES ovarian, 3.72 µM and 414 µM; in the assay with OVCAR-5 ovarian it was 7.23 µM and 544 µM.

Regarding `COc1ccc2c(c1)NC(=O)CN2c1nc(C)nc2ccccc12`, the TGI with A498 renal was 7.49 nM and > 100 µM; in the assay with SF-295 CNS it was 2.14 nM and > 100 µM. The GI50 with EKVX NSCLC is 0.632 nM and 10.6 nM; with NCI-H226 lung, 3.03 nM and 31.1 nM; in the assay with OVCAR-4 ovarian, 2.43 nM and 10.4 µM.

Turning to `C[C@H](CCCOS(C)(=O)=O)[C@H]1CC[C@H]2[C@@H]3CC[C@@H]4C[C@H](OS(C)(=O)=O)CC[C@]4(C)[C@H]3CC[C@]12C`, the TGI with 786-0 renal is 65.1 µM and > 2.5 mM; in the assay on A498 renal it was 59.6 µM and > 2.5 mM; with A549 NSCLC, 39.5 µM and > 2.5 mM; with ACHN renal it was 32.8 µM and 859 µM; in the assay with CAKI-1 renal it was 39.9 µM and > 2.5 mM; in the assay with DU-145 prostate, 93.5 µM and > 2.5 mM. Also, the TGI in the assay on HOP-62 NSCLC is 59.2 µM and 1.29 mM; in the assay with HS 578T breast it was 63.8 µM and 1.33 mM; in the assay with MALME-3M melanoma it was 59.2 µM and > 2.5 mM; with MDA-MB-231 breast, 36.5 µM and 1.38 mM; in the assay with MDA-MB-435, 47.1 µM and > 2.5 mM; with NCI-H226 lung it was 58.1 µM and > 2.5 mM. Also, the TGI is 31.9 µM and 647 µM in the assay on NCI-H23 lung; 65.1 µM and 867 µM in the assay with NCI/ADR-RES ovarian; 46.2 µM and > 2.5 mM in the assay with OVCAR-3 ovarian; 28.1 µM and > 2.5 mM with OVCAR-8 ovarian; 64.5 µM and > 2.5 mM with PC-3 prostate; 93.8 µM and 1.8 mM in the assay with SF-268 CNS. Besides, the TGI in the assay with SF-539 CNS is 58.6 µM and 2.46 mM; in the assay on SK-OV-3 ovarian it was 82.4 µM and > 2.5 mM; in the assay on SN12C renal it was 44.2 µM and > 2.5 mM; in the assay on TK-10 renal it was 36.7 µM and 1.62 mM; in the assay with U251 CNS it was 29.3 µM and 700 µM; with UACC-62 melanoma, 93.6 µM and > 2.5 mM.

Turning to `CCC(=O)OCN1C(=O)C=CC1=O`, the TGI in the assay on K-562 leukemia was 9.88 µM [sample A] and > 100 µM [sample B]; with MOLT-4 leukemia, 5.8 µM [sample A] and > 100 µM [sample B]; in the assay on T-47D breast it was 2.98 µM [sample A, 1 test] and 46.9 µM [sample B, 1 test].

Consider `CCC(C)C1NC(=O)C(NC(=O)c2c3nc4c(C(=O)NC5C(=O)NC(C(C)C)C(=O)N6CCCC6C(=O)N(C)CC(=O)N(C)C(C(C)C)C(=O)OC5C)ccc(C)c4oc-3c(C)c(=O)c2N)C(C)OC(=O)C(C(C)C)N(C)C(=O)CN(C)C(=O)C2CCCN2C1=O` (stereo not given) (I: TIP[Sar][NMeV] / II: TVP[Sar][NMeV]; ester I:1-I:C, II:1-II:C; linker I:N-II:N via Actinocin(1to9); configuration not given here), for which the TGI in the assay with HOP-62 NSCLC was 360 nM and 15 µM; in the assay on HT29 colon, 172 nM and 1.79 µM; in the assay with NCI-H460 lung, 104 nM and 15.7 µM; in the assay on SF-295 CNS, 719 nM and 11.9 µM; in the assay on UO-31 renal, 445 nM and 40.7 nM.

Regarding `OCC(O)C(O)C(C=NNc1ncnc2ccc(Br)cc12)=NNc1ncnc2ccc(Br)cc12` (stereo not given), the TGI in the assay with CAKI-1 renal is 9.43 µM [sample A] and > 100 µM [sample B]; with MALME-3M melanoma it was 6.77 µM [sample A] and 79.7 µM [sample B]; in the assay on NCI-H226 lung it was 8.75 µM [sample A] and > 100 µM [sample B]; with SR leukemia, 6.01 µM [sample A] and > 100 µM [sample B].

Values taken from PubChem BioAssay (NCI).
